# The supplement of paper PMC11417369
# ± gives the standard deviation of the averaged measurements. The list shows a part of the results.
# System: PfAP2-LT AP2 domain (GST-tagged)
# Experiment: gcPBM binding intensity (ln(normalized median fluorescence intensity)); higher = stronger DNA binding
# In short: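 Binding of GST-tagged P. falciparum DNA-binding domains, expressed in E. coli and used at about 25 μg on average, was carried out for 1 h in 1× PBS containing 1% milk, 0.2 mg/ml BSA, 0.5% salmon testes DNA and 0.03% Triton X-100. The target was an Agilent 4 × 180k array of primer-extended double-stranded 36-bp intergenic genomic probes plus negative controls, read with Alexa488 anti-GST antibody at 488 nm. Binding intensity is the highest Masliner-normalised natural-log median intensity across replicate spots of either probe orientation.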
row,Sequence,gcPBM binding intensity (ln)
1,TGTATACATAATATTTGTACATATTGTTATATATAT [XGTACX_site740],9.01 ± 0.39
2,AATATATATAATAATTGTACAATACGTATGTTATAT [XGTACX_site8745],9.06 ± 0.38
3,TTATAAAAAAAAAAAAAAAAGAAAATGAATTCACGA [CACACA_negctrl_site1248],8.29 ± 0.45
4,AAAAATAAAAAAAACACACATACCTTATTTTTGTTC [CACACA_site2634],8.98 ± 0.42
5,AATTAAAATTTTTTTTTTTTTTTTTTTTTTCTATTA [CACACA_negctrl_site1585],8.15 ± 0.56
6,ATTTAAAAAACTTTTAGCAAAAAAAAAAAATAATAA [TGCATGCA_negctrl_site191],8.21 ± 0.5
7,TATATATCCTTCTATGCATGCATATGGATAGATTTC [TGCATGCA_site58],8.87 ± 0.34
8,TATATATAGAAACACACACACAAAAAAAAAAAAAAA [CACACA_site1506],9.15 ± 0.46
9,AAATTGATATTATATATATATATATATATATATATA [GTGCAC_negctrl_site482],9.45 ± 0.32
10,ATAATATATATATGTAGTACGTATATAATTTTAATA [XGTACX_site5228],9.01 ± 0.48
11,TGAATTTCAAAACAGTGTACATTAATATATATATAA [XGTACX_site7951],8.61 ± 0.46
12,ATATTTATGACCGTACGTACCTAACAATACAATCAA [XGTACX_site4511],8.79 ± 0.38
13,TTACAAATATTATAAAGTACAAACCAGTAGATTTTG [XGTACX_site2272],8.63 ± 0.4
14,TATTTTTTTTTTTTTTTTTTTACCTTTCCACTCAAA [CACACA_negctrl_site1454],8.38 ± 0.53
15,TCATTCTAAATATAAACACACATAAATATGTACATT [CACACA_site7555],8.84 ± 0.35
16,TTTTTTTTTTTTAAAAGTACATAGTAGTAATTATAG [XGTACX_site4232],8.14 ± 0.46
17,CATAAAAATGGATACACACACATAATATATATATAT [CACACA_site3619],9.52 ± 0.39
18,AAAAAAATTAATGTGTGTACTTAGATATAATGTTTA [XGTACX_site8862],8.85 ± 0.49
19,TAATTTTTTTTTTATTGTACTTAATATTTTTAATTT [XGTACX_site5929],8.44 ± 0.65
20,ATTATCAAGACATTGCGTACTTAAAAAAAAAAAAAT [XGTACX_site6347],8.64 ± 0.47
21,TTATTATTCATATATTCACACATTAAAATTTTTCAA [CACACA_site4243],8.51 ± 0.52
22,CATATATAATAATATTGTACATATATAATAATAATA [XGTACX_site3338],8.72 ± 0.53

row,Sequence,gcPBM binding intensity (ln)
1,GTGAAGGTTTATATGTGTACATATATGTATTATATA [XGTACX_site326],8.96 ± 0.41
2,ATTTCATACAGACACACACACAAACAAACATATATA [CACACA_site979],9.8 ± 0.28
3,ATTATATATACATATACACACATACGTACATACATA [CACACA_site9194],9.24 ± 0.28
4,TTTTTTTTTTTTAATGCACACAGTGAACTTTTACTT [CACACA_site3567],8.94 ± 0.57
5,TTTAATAAATTGTGTACACAAAACATATAAATTTCG [CACACA_site5644],8.72 ± 0.54
6,GACATTTCTTGGGATACATGCATGTCCCAGAACAAA [TGCATGCA_site271],8.66 ± 0.37
7,AATTCAGCTTTACAACGTACACAATCATATGTCTAT [XGTACX_site8113],9.06 ± 0.41
8,TAATACATAAATGATTGTACATAAGAATTGAAACAT [XGTACX_site4583],8.9 ± 0.49
9,ATGAAGATTTAAAAATGTACATATGATCTATGTCCT [XGTACX_site8409],8.83 ± 0.54
10,TATAAATAAATAAACACACACAAATAAAATAAAAAA [CACACA_site7623],9.36 ± 0.4
11,TTTTTTTGCCATATTACACACACACCGGTAAACCCC [CACACA_site8475],9.56 ± 0.35
12,TTTATTTATTTATTCTTATTTTTTTTTTTTTTTACT [CACACA_negctrl_site257],8.42 ± 0.65
13,ACATATTAGGGTCATGAACACACAAAAAAAAAAAAA [CACACA_site8218],8.99 ± 0.61
14,TATATATATTAAAAACGTACAAAATAAGAATTAATT [XGTACX_site5979],8.81 ± 0.37
15,GGATATATTTTATGTACACACACATATAAGGGATTA [CACACA_site4181],9.24 ± 0.3
16,TCTAGGAAAAATTATAGTACACAAAAATATATATAT [XGTACX_site4136],8.7 ± 0.4
17,TATGACACTTTGAAGGGTACATGCAGAAAAAAAAAA [XGTACX_site569],8.72 ± 0.42
18,TTATATGCACTTTTTGCACACGTATGAATAACAAAA [CACACA_site1811],8.9 ± 0.35
19,ATATATACATATACTATATCTTTTATTTTTATTATT [GTGCAC_negctrl_site127],8.74 ± 0.52
20,TATATAAATGTATACACACACATATAAATATAAATA [CACACA_site6751],9.22 ± 0.4
21,ATTCTAATTACATATACACACAAAGGTTCATAACAA [CACACA_site3076],8.84 ± 0.35
22,TTCCCATGTAATATTAAACACACACCCATATAACAC [CACACA_site7905],9.505 ± 0.078

row,Sequence,gcPBM binding intensity (ln)
1,TAACTACTAGAAAAAACACACAAAAAGTAAATATAT [CACACA_site2740],8.99 ± 0.5
2,TGTTTAACATTTATATGTACATATATTCACATATTA [XGTACX_site342],8.9 ± 0.38
3,TGATTTTTTTTTTTTTTTTTTTTTTTTTTAGTTTGC [CACACA_negctrl_site1057],8.4 ± 0.55
4,TACCAAATCACCCCTTGTACCCATTTTAAAATTTTC [XGTACX_site396],8.88 ± 0.4
5,TAAAATATAAGACACACACACATATATTTATATATC [CACACA_site6248],9.79 ± 0.3
6,ATAAACAGATCATATACATGCATATATGTAGAATAA [TGCATGCA_site157],9.05 ± 0.45
7,GTACAGATGTAGTATGCATGTAATTATATATAAATT [TGCATGCA_site292],9.02 ± 0.5
8,ATATAAAAAAGAGGGAGTACTTGTAACAAAATAATA [XGTACX_site8679],8.79 ± 0.41
9,ACGTAGTAGGTATTATGTACATATTTATAAGTATAA [XGTACX_site7336],8.78 ± 0.45
10,ACATGTTCATAATTTTGTACATATTTTTATGAACAT [XGTACX_site3976],8.91 ± 0.3
11,ACATACGAAAATTGGAAGGATAGATAAAAAGAAAAT [CACACA_negctrl_site51],8.96 ± 0.51
12,AAAAAGCAGGATTATACACACAAATATTTATATGTT [CACACA_site6634],9.13 ± 0.45
13,GCGTAGTTCGGAAGGGTGCTTTTTTGTTAATAAAAA [GTGCAC_site9592],8.6 ± 0.49
14,AATATTTATTTTTTTGCACACATATTTTACATTTTA [CACACA_site3182],9.48 ± 0.41
15,GTAAAATTTCGGATTTGTACACATGGCTATGAAAAA [XGTACX_site939],8.73 ± 0.44
16,TCCCATAATATTAGTAGTACTATTAATATTTTCAGG [XGTACX_site4925],8.51 ± 0.41
17,TTATGTTATAAATACACACACAAAAGAAAAAAAAAA [CACACA_site7414],9.2 ± 0.47
18,TTCTCTATAAATGCTGCACACACATTTAATTATTTA [CACACA_site8828],9.21 ± 0.36
19,ATTTCTTTTTTTTCTTGTACACATATTAAATTTATG [XGTACX_site734],8.92 ± 0.55
20,CAGACCTCTTTGTCATGTACATAAAAAAATAAAGAA [XGTACX_site7887],8.72 ± 0.53
21,TATTTCTTTTGGTTGGTGCATAAAATAATACAATAT [GTGCAC_site9916],8.6 ± 0.35
22,TATAAACAGACGAAAACACACATATGTAAATATATA [CACACA_site4428],9.15 ± 0.44

row,Sequence,gcPBM binding intensity (ln)
1,ATAAAAATAATATCATGTACATATGTGTATTGTATT [XGTACX_site1768],8.88 ± 0.42
2,TACAAAAAGTTATACACACACGTACCTATAAATAGA [CACACA_site6571],9.24 ± 0.37
3,CCACATGAGATGATTACACACATATAAATATTTACA [CACACA_site6222],9.02 ± 0.45
4,TATAAGAAAATAATGTGTACTAAATAATAAATGCAT [XGTACX_site1204],8.87 ± 0.44
5,ACTTTTTAATAATAATAATTATATATATATATATAT [TGCATGCA_negctrl_site459],9.01 ± 0.34
6,ATATATATTTAATTTACACACAAAAAAAATTGTTGG [CACACA_site961],8.85 ± 0.38
7,AATACATAAATATTTTGTACATATTATATAAAATAT [XGTACX_site1627],8.62 ± 0.52
8,ATAAATGAAGATAAATTAAAAAAAAAAAAAAAAAAA [CACACA_negctrl_site992],8.31 ± 0.41
9,GAATGTATTCATAAATGTACTTATAATATTATAATA [XGTACX_site3466],8.52 ± 0.42
10,ATAACATACATAACAACACACAATATTTATATGTAT [CACACA_site210],9.2 ± 0.34
11,CGACTTTTAAAATATACACACATATATATATATATA [CACACA_site825],9.48 ± 0.24
12,ATGAAAAAAAAAAAAAAAAAAAAAAAAAAAAAAAAA [CACACA_negctrl_site1405],8.1 ± 0.49
13,CTTGTACCTAGAAATACACACAATTATATAACTTAT [CACACA_site2838],8.84 ± 0.42
14,ATTTGCTTTTATTTTACACACTTGCTCCTGTTGTAC [CACACA_site1088],9.52 ± 0.47
15,AAAAAAAAATATATTGCACACCTCTCAATAAAAAAA [CACACA_site172],8.84 ± 0.39
16,TCCATTCTATTTTTTACACACGTATGTAAATATTAT [CACACA_site2686],9.04 ± 0.39
17,AGAATATATATAATAGTGCAATGTACAATGAACAAA [GTGCAC_site9577],9.07 ± 0.39
18,ACGAATTAAATGGATTAATATATATATGTATATTTA [CACACA_negctrl_site1512],8.53 ± 0.39
19,TTAAATACTTTTCGAAGTACATTATATATATAATAT [XGTACX_site7530],8.56 ± 0.4
20,CGCAACACTATTTGGGTGCTCTTCAAAAAAAAAAAA [GTGCAC_site9598],8.23 ± 0.4
21,ATAATGTTTCTTTCAACACACAAAAAATGAACACAT [CACACA_site1552],8.91 ± 0.47
22,AAAAAAGAAAAAAGGACACACATAAATATACTCACG [CACACA_site2904],9.16 ± 0.48
